# According to article PMC7819943, “Rice protein-binding microarrays: a tool to detect cis-acting elements near promoter regions in rice”:
# The list shows a part of the results.
# Biological target: T1, OsWOX13 (Oryza sativa, UniProt Q5QMM3 1-267)
# T1 sequence: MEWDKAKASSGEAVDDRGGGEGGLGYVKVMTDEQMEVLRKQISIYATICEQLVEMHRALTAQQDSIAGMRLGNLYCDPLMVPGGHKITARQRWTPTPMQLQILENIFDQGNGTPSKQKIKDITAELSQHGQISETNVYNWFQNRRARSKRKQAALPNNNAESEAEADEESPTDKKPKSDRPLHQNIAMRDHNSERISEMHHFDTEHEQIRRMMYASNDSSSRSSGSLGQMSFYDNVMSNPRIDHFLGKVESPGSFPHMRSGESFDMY
# Assay: protein-binding microarray (RPBM); PBS, 2% BSA, 51.3 ng/ul salmon testes DNA, 50 uM zinc acetate, 200 nM TF, 25 C, 1 h; high values mean tight binding
# Conditions: protein: recombinant; tags: N-terminal polyhistidine and DsRed monomer fusion (pET32a); label: CyDye5-dUTP incorporated in the synthesized complementary strand; 3' TTTTT single-stranded linker to array surface; dsDNA, one strand shown
# How it was run: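 Ni–NTA purification followed expression in E. coli BL21-CodonPlus of transcription factors fused N-terminally to a polyhistidine tag and DsRed. At 200 nM in PBS with 2% BSA, salmon testes DNA and 50 µM zinc acetate, the protein was incubated for 1 h at 25 °C with a custom Agilent array that had been primer-extended with Cy5-dUTP and blocked with 2% BSA. After washing, the array was read on an Axon 4000B scanner. The binding signal is per-feature fluorescence intensity in arbitrary units.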
row,Sequence,binding signal
1,TCAAATAAACTTTTAAATTTTACTAATCTAGTCAAAAGCCCGGAGTCACCTAGTGCAG,5900 fluorescence intensity (a.u.)
2,TTAAGATTTATTTCAAATAGATCATTTAAAATAGACCCCTCGGAGTCACCTAGTGCAG,7260 fluorescence intensity (a.u.)
3,CGTGGCAATTAACTATTTGCCATTAGACTCATATATTATACGGAGTCACCTAGTGCAG,4280 fluorescence intensity (a.u.)
4,CCTAATCATCCCTATCAACACACCTAAGCTCACCAAATTCCGGAGTCACCTAGTGCAG,3450 fluorescence intensity (a.u.)
5,TTCTGAATGTGATCACCTGACAAATTTGTTCAGAGTTATCCGGAGTCACCTAGTGCAG,5250 fluorescence intensity (a.u.)
6,CTCACATGTTAATTACCATCAATGTATTTTACTCTTTTAACGGAGTCACCTAGTGCAG,16700 fluorescence intensity (a.u.)
7,CGCGCGATTGAAGAAGAAATTCCAGTCCACAGTCAAGGCACGGAGTCACCTAGTGCAG,4590 fluorescence intensity (a.u.)
8,TAAATTGGTATAGATGTATTGGAGTTAGTACTAGGCTATACGGAGTCACCTAGTGCAG,6680 fluorescence intensity (a.u.)
9,AACTTGAAACAATTTGATTTTGACTAAAGTCAAAACGTCTCGGAGTCACCTAGTGCAG,4710 fluorescence intensity (a.u.)
10,TAAATTATTTTCTATTTATAAATATGTCGTTTGCCTTATTCGGAGTCACCTAGTGCAG,4180 fluorescence intensity (a.u.)
11,ACTAAACTGCCTTTCTTTAGATCTGGCTTCACAATGATGCCGGAGTCACCTAGTGCAG,3220 fluorescence intensity (a.u.)
12,CTTTGCCTTGATTGGATCAGCTAGTCCTTCGTTTGAGTCCCGGAGTCACCTAGTGCAG,29800 fluorescence intensity (a.u.)
13,GCTTAATTAGCCGCTTCAGTTGCACAGTAACTGAGGAACCCGGAGTCACCTAGTGCAG,32700 fluorescence intensity (a.u.)
14,CCGATGTGATAGGGACTTAAAAGTTTAAAAGTTTTAGTCCCGGAGTCACCTAGTGCAG,7060 fluorescence intensity (a.u.)
15,ATAAATTATCCCACCAAAATTCAACTGAATTCGATAAGTTCGGAGTCACCTAGTGCAG,7710 fluorescence intensity (a.u.)
16,GAAGATTGGGAAAATTGACAAGTTTCAAAGTTCAAACTGGCGGAGTCACCTAGTGCAG,47400 fluorescence intensity (a.u.)
17,TTTTAATCATCAATGTAACTTAACCTTCAGACTTCAATCCCGGAGTCACCTAGTGCAG,11000 fluorescence intensity (a.u.)
18,AAAAGTAATTTATAAATAAAATTTCTATATACGTGTTCTTCGGAGTCACCTAGTGCAG,10600 fluorescence intensity (a.u.)
19,ACACTAAATTATTCTACCCACAAATTAAATAATTGAAATACGGAGTCACCTAGTGCAG,9290 fluorescence intensity (a.u.)
20,ATAAAATTTACAAACGGTAACAAGAACCTATGTTACATGACGGAGTCACCTAGTGCAG,9080 fluorescence intensity (a.u.)
21,ATTGCTGATTGTCTGTTCTTTTACTTGACATAACCTGAATCGGAGTCACCTAGTGCAG,30100 fluorescence intensity (a.u.)

row,Sequence,binding signal
1,TCATGTGCCAATCACCAGTGTCACACGAAGAGAGACGGCACGGAGTCACCTAGTGCAG,12000 fluorescence intensity (a.u.)
2,AAGCCAATTATAAACATATTTTGAGAAGATAGATAGGGAGCGGAGTCACCTAGTGCAG,6240 fluorescence intensity (a.u.)
3,TCTGTGGTGATTTGTGCTGCGAGAGAAACTTCTTTGTCGACGGAGTCACCTAGTGCAG,5500 fluorescence intensity (a.u.)
4,ACTTAGATAGTTTAATCACATCATTAGACCCTGGGGTGAGCGGAGTCACCTAGTGCAG,5080 fluorescence intensity (a.u.)
5,AGTGTGATTATGCAATTCTAATTGCTGAACTTTTGGTGCTCGGAGTCACCTAGTGCAG,40500 fluorescence intensity (a.u.)
6,AATATGGATTGATTATGGTTGTGTTTTAGATGCCTTTCCTCGGAGTCACCTAGTGCAG,17400 fluorescence intensity (a.u.)
7,GTTAAGTTAGTGCATAATTTAAAATTATATTGCTATTTTACGGAGTCACCTAGTGCAG,6850 fluorescence intensity (a.u.)
8,CATTCTCTCATCAATCATCCTATAGTTGCTCCCCTATTTCCGGAGTCACCTAGTGCAG,8360 fluorescence intensity (a.u.)
9,GGTTTGATGGAGGATGCTCTGACCGTCTTTCGCTCTTGTCCGGAGTCACCTAGTGCAG,5140 fluorescence intensity (a.u.)
10,AGGGTGATCCGAGTATAATTGGAACGGTAGTCAATCGTTTCGGAGTCACCTAGTGCAG,4650 fluorescence intensity (a.u.)
11,TTTTGAAATTATTAATTATTTTATTTGTGACTTACTTTATCGGAGTCACCTAGTGCAG,14800 fluorescence intensity (a.u.)
12,GGATAATTTTGCTTTCCTTGAGGTTCATTCCAATTATTTTCGGAGTCACCTAGTGCAG,7740 fluorescence intensity (a.u.)
13,CATAATTACCGTGGCAATAGACAGCGATCGTGGCTGTTCGCGGAGTCACCTAGTGCAG,35900 fluorescence intensity (a.u.)
14,CGCGGGCGTGATTAGGGTTTGCGGCTGGGGTTGCGGTGCACGGAGTCACCTAGTGCAG,21300 fluorescence intensity (a.u.)
15,TAATTGAGTCAATCAATATGCTTCTGAATCTGCTGATCGCCGGAGTCACCTAGTGCAG,24800 fluorescence intensity (a.u.)
16,AATAAATTAATTTTGAAATTTAAAATCAATAATGGTTTACCGGAGTCACCTAGTGCAG,31400 fluorescence intensity (a.u.)
17,TCAAAATCAGTTTGAGTAAATTTTATTTTGGTTCAACTTTCGGAGTCACCTAGTGCAG,6800 fluorescence intensity (a.u.)
18,ATATACATATGTCTAAATTTATACTATAACATATCACTTCCGGAGTCACCTAGTGCAG,4850 fluorescence intensity (a.u.)
19,ACCTGGGCCTAATTAGGCGAGGGCCACTACATGATGCTATCGGAGTCACCTAGTGCAG,3780 fluorescence intensity (a.u.)
20,ATTCTCTAATTATTTGATATATGCCTAATAAACCATGAAACGGAGTCACCTAGTGCAG,6740 fluorescence intensity (a.u.)
21,CGTGATTTTCCTGGGCCCTGTCTCTTGGGCCCCACAGTGGCGGAGTCACCTAGTGCAG,6540 fluorescence intensity (a.u.)
